Measured values: PubChem BioAssay AID360 (National Center for Advancing Translational Sciences (NCATS), 2006)
Out of some 48,000 compounds screened, about 550 (1.1%) were called active. Inconclusive results (about 4%) are left out. Rule as the data show it: active = potency below about 15 µM; inconclusive = mostly about 16 µM to 33 µM; inactive = weaker than that. The list shows a part of the results.

These compounds were tested against Lysosomal acid glucosylceramidase (Homo sapiens) (UniProt P04062) (assay: Glucocerebrosidase). Conditions: purified enzyme, resorufin glucoside fluorescence (screen aimed at inhibitors), 20 min.
Chain of UniProt P04062 (P04062 whole entry, looked up): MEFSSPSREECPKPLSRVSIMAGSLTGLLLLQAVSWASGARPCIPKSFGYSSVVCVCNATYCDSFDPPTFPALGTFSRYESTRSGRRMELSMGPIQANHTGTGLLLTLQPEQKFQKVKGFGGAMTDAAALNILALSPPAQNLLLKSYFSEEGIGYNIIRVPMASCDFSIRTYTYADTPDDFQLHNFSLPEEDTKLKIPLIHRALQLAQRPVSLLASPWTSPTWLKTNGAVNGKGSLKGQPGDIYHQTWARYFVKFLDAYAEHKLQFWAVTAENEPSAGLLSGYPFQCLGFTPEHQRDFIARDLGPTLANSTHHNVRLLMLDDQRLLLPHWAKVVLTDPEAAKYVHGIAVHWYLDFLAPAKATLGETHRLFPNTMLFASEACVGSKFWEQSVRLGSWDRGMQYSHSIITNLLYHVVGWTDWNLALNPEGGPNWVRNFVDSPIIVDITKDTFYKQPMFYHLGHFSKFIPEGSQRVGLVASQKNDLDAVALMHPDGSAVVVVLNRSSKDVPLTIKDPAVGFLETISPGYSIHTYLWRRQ
Method in brief: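 Compounds titrated against 0.2 nM normal enzyme, 30 uM resorufin beta-D-glucopyranoside substrate, citrate/phosphate buffer with taurocholate and tween-20, pH 5.9. Reaction ran 20 min at room temperature; fluorescence (Ex 548/Em 600) gave AC50.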
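Also: the screen sought inhibitors.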
Potency is read from the fitted curve at half-maximal effect.

Potency, inactive:
CCOC(=O)Cc1c(C)c2c(O)cc(O)cc2oc1=O > 76.9 µM
CC(C)NS(=O)(=O)c1cc(C(=O)O)ccc1Cl > 76.9 µM
O=C(Cn1[nH]c(=O)c2ccccc2c1=O)Nc1cccc(-c2nnc3n2CCCCC3)c1 > 76.9 µM
O=C(c1cnn2c(C(F)F)cc(-c3ccccc3)nc12)N1CCSCC1 > 76.9 µM
CCOc1cc2[nH]c(=S)n(CCOC)c(=O)c2cc1OCC > 76.9 µM
O=C(Nc1ccc(N2CCN(C(=O)c3ccco3)CC2)c(Cl)c1)c1cccs1
CCCc1cc(=O)n2[nH]c(NCc3ccc(Cl)cc3Cl)nc2n1 > 76.9 µM
CCN1CCN(S(=O)(=O)c2ccc(S(=O)(=O)N(CC)Cc3ccccc3)cc2)CC1
CCn1c(C)c(C(C)=O)c(N2CCN(c3ccccn3)CC2)nc1=S > 76.9 µM
O=C(NC1CCCCCC1)c1cc(S(=O)(=O)N2CCC3(CC2)OCCO3)ccc1F > 76.9 µM
O=C(OCc1ccc2c(c1)OCO2)c1ccc(S(=O)(=O)N2CCCC2)cc1 > 76.9 µM
Cc1nc(CC(=O)N2CCN(S(=O)(=O)c3ccccc3C#N)CC2)cs1 > 76.9 µM
OC(CN1CCN(c2cccc(C(F)(F)F)c2)CC1)c1c[nH]c2ccccc12 (configuration not stated) > 76.9 µM
CCOCc1nnc(NC(=O)c2cccs2)s1
O=C(c1ccc(-c2ccccc2)cc1)N1CCN(c2ncccn2)CC1 > 76.9 µM
CCOC(=O)C1CCN(CC(=O)Nc2c(C(=O)OC)[nH]c3ccc(Cl)cc23)CC1 > 76.9 µM
COc1ccccc1NC(=O)N1CCn2c(nc3ccccc32)C1 > 76.9 µM
CCC(=O)Nc1nc2ccccc2n1CCN(CC)CC > 76.9 µM
Fc1ccc(C2CC(c3ccc(F)cc3)n3ncnc3N2)cc1 (configuration not stated) > 76.9 µM
Cc1cc(=O)n2[nH]c(-c3ccccc3Cl)cc2n1 > 76.9 µM
CCOC(=O)Nc1ccc2c(c1)N(C(=O)CCN1CCOCC1)c1ccccc1S2=O (configuration not stated) > 76.9 µM
Cc1ccc2nc3c(cc2c1)CN(Cc1ccco1)C(=NCC1CCCO1)S3 (configuration not stated) > 76.9 µM
CCc1ccc(S(=O)(=O)NCCc2cn3ccccc3n2)s1 > 76.9 µM
COC(=O)CSc1nnc(-c2ccoc2C)n1-c1ccc(C)cc1 > 76.9 µM
CC1CCCN(CCC(=O)c2ccc(Br)cc2)C1 (configuration not stated) > 76.9 µM
CC(C)NS(=O)(=O)c1ccc(OCC(=O)NCc2ccccc2)cc1 > 76.9 µM
Cc1ccc(S(=O)(=O)NCCCCCC(=O)NC(C)(C)CO)cc1 > 76.9 µM
CSc1nc2ccc(S(=O)(=O)Nc3c(C)n(C)n(-c4ccccc4)c3=O)cc2s1 > 76.9 µM
O=C(Nc1nc(-c2ccc(S(=O)(=O)N3CCCC3)cc2)cs1)C1COc2ccccc2O1 (configuration not stated) > 76.9 µM
O=C(NCc1ccco1)c1cc2nc(C3CC3)cc(C(F)(F)F)n2n1 > 76.9 µM
CC(OC(=O)c1ccco1)C(=O)NC1CCCCC1 (configuration not stated) > 76.9 µM
Cc1cc(NC(=O)c2cc(-c3ccco3)on2)no1 > 76.9 µM
CCCCn1c(CN2CCN(C)CC2)nc2ccccc21 > 76.9 µM
O=C(c1cccs1)N(CCO)Cc1cc2cc3c(cc2[nH]c1=O)OCCO3 > 76.9 µM
O=C(Nc1ccc2c(c1)OCO2)C1CCCN1C(=O)Nc1ccccc1F (configuration not stated) > 76.9 µM
O=c1c2c3nc4ccccc4nc3n(Cc3ccccc3)c2ncn1Cc1ccco1 > 76.9 µM
Cc1ccc(NC(=O)Cn2cccc2)c(Br)c1 > 76.9 µM
COCCn1nnnc1C(c1ccccc1)N1CCN(C)CC1 (configuration not stated) > 76.9 µM
Cc1cccn2cc(-c3ccccc3)nc12 > 76.9 µM
FC(F)(F)c1cccc(-c2nnc3ccc(C(F)(F)F)cn23)c1 > 76.9 µM
COC(=O)c1cn(NC(=O)c2cccc(N(C)C)c2)c(=O)c2ccccc12 > 76.9 µM
CCCSc1nc(N)cc(=O)[nH]1
Cc1cc(S(=O)(=O)Nc2c(C(=O)O)[nH]c3ccccc23)ccc1F > 76.9 µM
COC(=O)c1cc(Br)c(=O)n(Cc2ccc(C(=O)O)cc2)c1 > 76.9 µM
COc1ccc(N2CCN(C(=O)c3ccc(N4C(=O)NC5CC4(C)Oc4ccccc45)cc3)CC2)cc1 (configuration not stated) > 76.9 µM
CCCCCc1nnc(NC(=O)CS(=O)(=O)Cc2ccccc2)s1 > 76.9 µM
O=S(=O)(Nc1ccc(O)c(CN2CCCCC2)c1)c1ccccc1 > 76.9 µM
COC(=O)C1=C(N)Oc2cc(C)n(CC3CCCO3)c(=O)c2C1c1ccc(Cl)cc1 (configuration not stated) > 76.9 µM
CN(Cc1ccccc1)Cc1c(F)cccc1F > 76.9 µM
CC(C)c1ccccc1N=C1SCCN1C1CCS(=O)(=O)C1 (configuration not stated) > 76.9 µM
O=C(Cn1nc(-c2ccccc2)ccc1=O)NCC1COCCO1 (configuration not stated) > 76.9 µM
O=C(c1cccc(Cl)c1Cl)N1CCN(c2ccccn2)CC1 > 76.9 µM
O=C(c1ccco1)N1CCN(S(=O)(=O)Cc2ccc(Cl)cc2)CC1 > 76.9 µM
CCOc1ccc(-n2cc(C(=O)N3CCN(C)CC3)c3cc(OC)c(OC)cc3c2=O)cc1 > 76.9 µM
CCCCC(=O)NC(Nc1cc(C)ccn1)(C(=O)OCC)C(F)(F)F (configuration not stated) > 76.9 µM
COc1ccccc1N1CCN(S(=O)(=O)c2ccccc2)CC1 > 76.9 µM
COc1ccc(CC(=O)NC(C)c2nnc(SCc3nc4ccccc4c(=O)[nH]3)n2C)cc1 (configuration not stated) > 76.9 µM
Cc1cc(SCC(=O)OCC(=O)N2CCN(C(=O)c3ccco3)CC2)c(C)cc1Br > 76.9 µM
CN/C=C1\C(=O)C(C)(C)Oc2ccc3ccc(=O)oc3c21 > 76.9 µM
CCCCCCC(c1c(C)n(C)n(-c2ccccc2)c1=O)c1c(C)n(C)n(-c2ccccc2)c1=O > 76.9 µM
O=C(c1ccc(S(=O)(=O)N2CCC(c3nc4ccccc4s3)CC2)cc1)N1CCOCC1 > 76.9 µM
COc1ccc(Cl)cc1S(=O)(=O)N1CCN(C(=O)c2cc(OC)c(OC)c(OC)c2)CC1 > 76.9 µM
O=C(Nc1ccccc1)N1CC=C(c2ccccc2)CC1 > 76.9 µM
COc1ccc(F)cc1S(=O)(=O)Nc1ccc2c(c1)OCO2 > 76.9 µM
Cc1cc(Nc2ccccc2)nn1C(=O)c1ccccc1 > 76.9 µM
O=C(NC1CCCC1)C(c1cccs1)N(C(=O)c1ccno1)c1ccccc1 (configuration not stated) > 76.9 µM
Cc1cc(NC(=O)Cn2cc(C(F)(F)F)cc(Cl)c2=O)no1 > 76.9 µM
CCOc1ccc(N2Cc3ncccc3C2=O)cc1 > 76.9 µM
C=CCNC(=O)c1ccc(C)c(Br)c1 > 76.9 µM
CCC(C)(C)n1nnnc1CN(Cc1ccc(Cl)cc1)Cc1ccco1
Nn1c(Cc2cccc3ccccc23)nnc1SC1CCOC1=O (configuration not stated) > 76.9 µM
CCOC(=O)c1ccc(NC(=O)CCc2nc(-c3cccc(C)c3)no2)cc1 > 76.9 µM
C=CCn1c(Cc2cccs2)nnc1SCC(=O)Nc1ccc(OC)cc1 > 76.9 µM
O=C(Nc1ccccc1)N1CCSCC1 > 76.9 µM
CCn1c(SCC(=O)Nc2nc3ccc(OC)cc3s2)nc2c1c(=O)n(C)c(=O)n2C > 76.9 µM
Cc1cccc(C)c1-n1nnnc1S(=O)(=O)Cc1ccccc1Cl > 76.9 µM
COCCN1C(=O)c2oc3cc(C)c(C)cc3c(=O)c2C1c1ccc(O)cc1 (configuration not stated) > 15.4 µM
O=c1c2cnn(-c3ccccc3)c2ncn1Cc1cccnc1 > 76.9 µM
CCOC(=O)C(C)c1n[nH]c(=O)c2ccccc12 (configuration not stated) > 76.9 µM
OC1CCN(c2ncnc3c2nnn3Cc2c(F)cccc2Cl)CC1 > 76.9 µM
CNc1nc(SCC(=O)OC)nc(N2CCOCC2)n1 > 76.9 µM
COC(=O)C1=C(NC(=O)c2ccc(C)cc2)CCS1 > 76.9 µM
CCC(C)N(C)Cc1cccc(C2(O)CCN(S(=O)(=O)c3ccc(F)cc3)CC2)c1 (configuration not stated) > 76.9 µM
COC(=O)Nc1ncc(CN2CCc3ccccc3C2)s1 > 76.9 µM
Cc1cc(S(=O)(=O)N2CCOCC2)ccc1F > 76.9 µM
CCc1nnc(NC(=O)CN2CCC(O)(c3ccccc3OC)CC2)s1 > 76.9 µM
CC1Cc2ccccc2N1C(=O)CN1CCc2ccccc2C1 (configuration not stated) > 76.9 µM
CCc1nc(SCC(=O)Nc2ccnc3ccccc23)n[nH]1 > 76.9 µM
O=c1[nH]c(CSc2nnc(NCCCN3CCOCC3)s2)nc2cc(Cl)ccc12
CCCCOC(=O)n1c(SCC(=O)N(C)C)nc2ccccc21 > 76.9 µM
CC(C)N1CC(C(=O)Nc2nc3ccccc3s2)CC1=O (configuration not stated) > 76.9 µM
CCn1ncc(Br)c1C(=O)Nc1nccs1 > 76.9 µM
